This passage reports IC50 results from US20250214977A1, “STAT6 INHIBITORS AND USES THEREOF” (Kymera Therapeutics, Inc., priority 2024, published 2025).

This experiment addresses T1, biotinylated truncated STAT6 (123-632)-avi (Homo sapiens, UniProt P42226).
T1 sequence (P42226 123-632 limits assumed): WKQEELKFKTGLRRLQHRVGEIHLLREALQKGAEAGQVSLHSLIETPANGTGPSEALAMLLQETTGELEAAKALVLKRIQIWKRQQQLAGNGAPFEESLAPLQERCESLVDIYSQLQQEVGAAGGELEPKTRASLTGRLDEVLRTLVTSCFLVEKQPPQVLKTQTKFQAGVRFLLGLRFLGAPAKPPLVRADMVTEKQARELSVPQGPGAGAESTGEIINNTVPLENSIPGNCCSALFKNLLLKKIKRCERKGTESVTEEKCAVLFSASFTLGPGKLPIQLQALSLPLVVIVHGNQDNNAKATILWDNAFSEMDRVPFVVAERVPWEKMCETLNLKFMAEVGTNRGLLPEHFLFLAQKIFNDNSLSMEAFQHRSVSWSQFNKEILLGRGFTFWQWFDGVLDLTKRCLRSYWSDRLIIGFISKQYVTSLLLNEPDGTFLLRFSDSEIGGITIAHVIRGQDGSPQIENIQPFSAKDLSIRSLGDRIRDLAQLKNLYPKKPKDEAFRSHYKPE
The experiment is described as follows: Homogenous Time-Resolved Fluorescence (HTRF) binding assay. As to conditions: 0.15 nM biotinylated truncated STAT6 (123-632)-avi, 20 nM fluorescein-labeled probe, 30 minutes room temperature.

pIC50: −log10 of the molar value. Where only a bound is given, the exact number is not on record here.

As usually defined, the pIC50 is the IC50 on a negative log10 scale, so that one unit is a factor of ten. Read a low pIC50 as a large IC50. Molecule `COc1ccccc1-c1cc(C2=CCCN(C(=O)CCn3ccnn3)C2)c(F)c2[nH]c(C(=O)N3CCC(C4C(=O)Nc5ccccc54)CC3)cc12` (centres unmarked) [Example I-1347] had a pIC50 of 6.00 to 7.00.
Turning to `COc1ccccc1-c1cc(C2=CCCN(C(=O)CCn3ccnn3)C2)c(F)c2[nH]c(C(=O)N3CCNC(CC#N)C3)cc12` (centres unmarked) [Example I-1348], the negative-log IC50 (pIC50) was 6.00 to 7.00.
The figure for `COc1ccccc1-c1cc(C2=CCCN(C(=O)CCn3ccnn3)C2)c(F)c2[nH]c(C(=O)N3CCN(CCS(C)(=O)=O)CC3)cc12` [Example I-1349] is 6.00 to 7.00; for `CCn1cc(C#N)c(NC(=O)c2cc3c(-c4ccccc4OC)cc(C4=CCCN(C(=O)CCn5ccnn5)C4)c(F)c3[nH]2)n1` [Example I-1350] it is > 7.00.
The figure for `COc1ccccc1-c1cc(C2=CCCN(C(=O)CCn3ccnn3)C2)c(F)c2[nH]c(C(=O)N(C)CCCNC(C)=O)cc12` [Example I-1351] is > 7.00; for `CCNC1CCN(C(=O)c2cc3c(-c4ccccc4OC)cc(C4=CCCN(C(=O)CCn5ccnn5)C4)c(F)c3[nH]2)CC1` [Example I-1352] it is 6.00 to 7.00.
The figure for `COc1ccccc1-c1cc(C2=CCCN(C(=O)CCn3ccnn3)C2)c(F)c2[nH]c(C(=O)Nc3nonc3C)cc12` [Example I-1353] is 6.00 to 7.00.
On to `COc1ccccc1-c1cc(C2=CCCN(C(=O)CCn3ccnn3)C2)c(F)c2[nH]c(C(=O)N3CCN(CCN4CCC(F)(F)C4)CC3)cc12` [Example I-1354], for which the pIC50 was 6.00 to 7.00.
The figure for `COc1ccccc1-c1cc(C2=CCCN(C(=O)CCn3ccnn3)C2)c(F)c2[nH]c(C(=O)N3CCN(CCN4CCCC4=O)CC3)cc12` [Example I-1355] is > 7.00.
Turning to `COc1ccccc1-c1cc(C2=CCCN(C(=O)CCn3ccnn3)C2)c(F)c2[nH]c(C(=O)NC3CN(C(C)=O)C3)cc12` [Example I-1356], the negative-log IC50 (pIC50) was 4.00 to 5.00.
As for `COc1ccccc1-c1cc(C2=CCCN(C(=O)CCn3ccnn3)C2)c(F)c2[nH]c(C(=O)N3CCN(c4cc(CO)ccn4)CC3)cc12` [Example I-1357], the figure is > 7.00.
As for `COc1ccccc1-c1cc(C2=CCCN(C(=O)CCn3ccnn3)C2)c(F)c2[nH]c(C(=O)N3CCN(c4cncc(C#N)n4)CC3)cc12` [Example I-1358], the figure is > 7.00; as for `COc1ccccc1-c1cc(C2=CCCN(C(=O)CCn3ccnn3)C2)c(F)c2[nH]c(C(=O)N3CCNC(C)C3)cc12` (centres unmarked) [Example I-1360], > 7.00.
As for `COc1ccccc1-c1cc(C2=CCCN(C(=O)CCn3ccnn3)C2)c(F)c2[nH]c(C(=O)N3CCN(c4nnc(C)o4)CC3)cc12` [Example I-1361], the figure is > 7.00.
As for `COc1ccccc1-c1cc(C2=CCCN(C(=O)CCn3ccnn3)C2)c(F)c2[nH]c(C(=O)N3CCN(c4cnc(=O)n(C)c4)CC3)cc12` [Example I-1363], the negative-log IC50 (pIC50) was > 7.00.
Take `COc1ccccc1-c1cc(C2=CCCN(C(=O)CCn3ccnn3)C2)c(F)c2[nH]c(C(=O)N3CCC(Sc4ccc(F)cc4)C3)cc12` (centres unmarked) [Example I-1364]: the pIC50 was 6.00 to 7.00.
For the molecule `COc1ccccc1-c1cc(C2=CCCN(C(=O)CCn3ccnn3)C2)c(F)c2[nH]c(C(=O)N3CCC(F)(CO)C3)cc12` (centres unmarked) [Example I-1365], the pIC50 was > 7.00.
The figure for `COc1ccccc1-c1cc(C2=CCCN(C(=O)CCn3ccnn3)C2)c(F)c2[nH]c(C(=O)N3CCC(C)(C#N)C3)cc12` (centres unmarked) [Example I-1366] is > 7.00; for `COC(=O)C1(NC(=O)c2cc3c(-c4ccccc4OC)cc(C4=CCCN(C(=O)CCn5ccnn5)C4)c(F)c3[nH]2)COC1` [Example I-1367] it is 6.00 to 7.00; for `COc1ccccc1-c1cc(C2=CCCN(C(=O)CCn3ccnn3)C2)c(F)c2[nH]c(C(=O)N3CCN(c4cn(C)cn4)CC3)cc12` [Example I-1368] it is > 7.00.
As for `COc1ccccc1-c1cc(C2=CCCN(C(=O)CCn3ccnn3)C2)c(F)c2[nH]c(C(=O)N3CCNC4(CC4)C3)cc12` [Example I-1370], the figure is > 7.00; as for `COc1ccccc1-c1cc(C2=CCCN(C(=O)CCn3ccnn3)C2)c(F)c2[nH]c(C(=O)N3CCN(Cc4ncn(C)c4C)CC3)cc12` [Example I-1371], > 7.00.
Take `COc1ccccc1-c1cc(C2=CCCN(C(=O)CCn3ccnn3)C2)c(F)c2[nH]c(C(=O)N3CCc4nnc(-c5ccccn5)n4CC3)cc12` [Example I-1372]: the pIC50 was > 7.00.
The figure for `COc1ccccc1-c1cc(C2=CCCN(C(=O)CCn3ccnn3)C2)c(F)c2[nH]c(C(=O)N3CCC(CN(C)C)CC3)cc12` [Example I-1373] is > 7.00; for `COc1ccccc1-c1cc(C2=CCCN(C(=O)CCn3ccnn3)C2)c(F)c2[nH]c(C(=O)N(C)C3CC(C)C3)cc12` (centres unmarked) [Example I-1374] it is > 7.00; for `COc1ccccc1-c1cc(C2=CCCN(C(=O)CCn3ccnn3)C2)c(F)c2[nH]c(C(=O)N3CC(C(F)(F)F)C3)cc12` [Example I-1375] it is 6.00 to 7.00.
The figure for `COc1ccccc1-c1cc(C2=CCCN(C(=O)CCn3ccnn3)C2)c(F)c2[nH]c(C(=O)N(C)C3CC(O)C3)cc12` (centres unmarked) [Example I-1376] is > 7.00; for `COc1ccccc1-c1cc(C2=CCCN(C(=O)CCn3ccnn3)C2)c(F)c2[nH]c(C(=O)NC3CC(=O)N(C)C3)cc12` (centres unmarked) [Example I-1377] it is 6.00 to 7.00.
The figure for `COc1ccccc1-c1cc(C2=CCCN(C(=O)CCn3ccnn3)C2)c(F)c2[nH]c(C(=O)N3CCN(c4cc(C)nc(C)n4)CC3)cc12` [Example I-1380] is > 7.00; for `COc1ccccc1-c1cc(C2=CCCN(C(=O)CCn3ccnn3)C2)c(F)c2[nH]c(C(=O)N3CCN(Cc4cccc5c4OCO5)CC3)cc12` [Example I-1382] it is 6.00 to 7.00.
Turning to `COc1ccccc1-c1cc(C2=CCCN(C(=O)CCn3ccnn3)C2)c(F)c2[nH]c(C(=O)N3CCN(C4CC5(COC5)C4)CC3)cc12` [Example I-1383], the pIC50 was 6.00 to 7.00.
As for `CCCc1noc(C2CCN(C(=O)c3cc4c(-c5ccccc5OC)cc(C5=CCCN(C(=O)CCn6ccnn6)C5)c(F)c4[nH]3)CC2)n1` [Example I-1384], the figure is > 7.00.
The figure for `COc1ccccc1-c1cc(C2=CCCN(C(=O)CCn3ccnn3)C2)c(F)c2[nH]c(C(=O)N3CCC(c4ncc(Cl)cn4)CC3)cc12` [Example I-1385] is > 7.00; for `COc1ccccc1-c1cc(C2=CCCN(C(=O)CCn3ccnn3)C2)c(F)c2[nH]c(C(=O)N(C)c3nccc(CO)n3)cc12` [Example I-1386] it is > 7.00.
As for `COc1ccccc1-c1cc(C2=CCCN(C(=O)CCn3ccnn3)C2)c(F)c2[nH]c(C(=O)N3CCc4nc[nH]c(=O)c4C3)cc12` [Example I-1388], the figure is > 7.00; as for `COc1ccccc1-c1cc(C2=CCCN(C(=O)CCn3ccnn3)C2)c(F)c2[nH]c(C(=O)N3CCC4(CC3)OC(=O)Nc3ncccc34)cc12` [Example I-1390], > 7.00; as for `COc1ccccc1-c1cc(C2=CCCN(C(=O)CCn3ccnn3)C2)c(F)c2[nH]c(C(=O)N3CCOc4ncccc43)cc12` [Example I-1391], > 7.00.
`COC(=O)C1(NC(=O)c2cc3c(-c4ccccc4OC)cc(C4=CCCN(C(=O)CCn5ccnn5)C4)c(F)c3[nH]2)CC1` [Example I-1392]: the pIC50 is > 7.00.
The figure for `COc1ccccc1-c1cc(C2=CCCN(C(=O)CCn3ccnn3)C2)c(F)c2[nH]c(C(=O)N3CC4(CC(C)C4)C3)cc12` [Example I-1393] is 6.00 to 7.00; for `CCn1nccc1NC(=O)c1cc2c(-c3ccccc3OC)cc(C3=CCCN(C(=O)CCn4ccnn4)C3)c(F)c2[nH]1` [Example I-1394] it is > 7.00; for `COc1ccccc1-c1cc(C2=CCCN(C(=O)CCn3ccnn3)C2)c(F)c2[nH]c(C(=O)N3CCN(C)C[C@@H]3C)cc12` [Example I-1395] it is > 7.00.
The figure for `COc1ccccc1-c1cc(C2=CCCN(C(=O)CCn3ccnn3)C2)c(F)c2[nH]c(C(=O)Nc3cccc(S(C)(=O)=O)c3)cc12` [Example I-1396] is 6.00 to 7.00.
In the case of `COc1ccccc1-c1cc(C2=CCCN(C(=O)CCn3ccnn3)C2)c(F)c2[nH]c(C(=O)N[C@H](C)c3nc4ccccc4[nH]3)cc12` [Example I-1397], the pIC50 is > 7.00.
The figure for `COc1ccccc1-c1cc(C2=CCCN(C(=O)CCn3ccnn3)C2)c(F)c2[nH]c(C(=O)N3CCn4c3cc(Cl)nc4=O)cc12` [Example I-1398] is > 7.00.
As for `CCN(Cc1ccccc1O)C(=O)c1cc2c(-c3ccccc3OC)cc(C3=CCCN(C(=O)CCn4ccnn4)C3)c(F)c2[nH]1` [Example I-1399], the figure is 6.00 to 7.00; as for `COc1ccccc1-c1cc(C2=CCCN(C(=O)CCn3ccnn3)C2)c(F)c2[nH]c(C(=O)N3CCN(c4ccn5cnnc5c4)CC3)cc12` [Example I-1400], > 7.00; as for `COc1ccccc1-c1cc(C2=CCCN(C(=O)CCn3ccnn3)C2)c(F)c2[nH]c(C(=O)N3CCC(Oc4ccccn4)CC3)cc12` [Example I-1401], > 7.00.
The figure for `COc1ccccc1-c1cc(C2=CCCN(C(=O)CCn3ccnn3)C2)c(F)c2[nH]c(C(=O)NC3(C#N)CC3)cc12` [Example I-1403] is > 7.00.
`CCOC(=O)N1CCN(C(=O)c2cc3c(-c4ccccc4OC)cc(C4=CCCN(C(=O)CCn5ccnn5)C4)c(F)c3[nH]2)CC1` [Example I-1405]: the pIC50 was > 7.00.
The figure for `COCC1CCN(C(=O)c2cc3c(-c4ccccc4OC)cc(C4=CCCN(C(=O)CCn5ccnn5)C4)c(F)c3[nH]2)CC1` [Example I-1406] is > 7.00.
